Reference: PubChem BioAssay AID504333 (National Center for Advancing Translational Sciences (NCATS), 2011)
In all, about 360,000 compounds went through this assay and about 16,000 (4.4%) were called active. The shares of active, inactive and inconclusive entries below differ from those in the screen. The call rests on the fitted dose curve; in most records, active means well fitted inhibition curve with a large enough effect; inconclusive means small, poorly fitted or top-dose-only effect; inactive means no such curve, though single readings can be large or run the other way. A potency beside an inconclusive call is a rough fit, not a confirmed value.

The compounds below were run against Bromodomain adjacent to zinc finger domain protein 2B (Homo sapiens) (UniProt Q9UIF8) (assay: qHTS Assay for Inhibitors of BAZ2B). Conditions: AlphaScreen BAZ2B-H3K14Ac peptide displacement; series mostly up to 114 µM.
Chain of UniProt Q9UIF8 (Q9UIF8 whole entry, looked up, the tested form may be a part): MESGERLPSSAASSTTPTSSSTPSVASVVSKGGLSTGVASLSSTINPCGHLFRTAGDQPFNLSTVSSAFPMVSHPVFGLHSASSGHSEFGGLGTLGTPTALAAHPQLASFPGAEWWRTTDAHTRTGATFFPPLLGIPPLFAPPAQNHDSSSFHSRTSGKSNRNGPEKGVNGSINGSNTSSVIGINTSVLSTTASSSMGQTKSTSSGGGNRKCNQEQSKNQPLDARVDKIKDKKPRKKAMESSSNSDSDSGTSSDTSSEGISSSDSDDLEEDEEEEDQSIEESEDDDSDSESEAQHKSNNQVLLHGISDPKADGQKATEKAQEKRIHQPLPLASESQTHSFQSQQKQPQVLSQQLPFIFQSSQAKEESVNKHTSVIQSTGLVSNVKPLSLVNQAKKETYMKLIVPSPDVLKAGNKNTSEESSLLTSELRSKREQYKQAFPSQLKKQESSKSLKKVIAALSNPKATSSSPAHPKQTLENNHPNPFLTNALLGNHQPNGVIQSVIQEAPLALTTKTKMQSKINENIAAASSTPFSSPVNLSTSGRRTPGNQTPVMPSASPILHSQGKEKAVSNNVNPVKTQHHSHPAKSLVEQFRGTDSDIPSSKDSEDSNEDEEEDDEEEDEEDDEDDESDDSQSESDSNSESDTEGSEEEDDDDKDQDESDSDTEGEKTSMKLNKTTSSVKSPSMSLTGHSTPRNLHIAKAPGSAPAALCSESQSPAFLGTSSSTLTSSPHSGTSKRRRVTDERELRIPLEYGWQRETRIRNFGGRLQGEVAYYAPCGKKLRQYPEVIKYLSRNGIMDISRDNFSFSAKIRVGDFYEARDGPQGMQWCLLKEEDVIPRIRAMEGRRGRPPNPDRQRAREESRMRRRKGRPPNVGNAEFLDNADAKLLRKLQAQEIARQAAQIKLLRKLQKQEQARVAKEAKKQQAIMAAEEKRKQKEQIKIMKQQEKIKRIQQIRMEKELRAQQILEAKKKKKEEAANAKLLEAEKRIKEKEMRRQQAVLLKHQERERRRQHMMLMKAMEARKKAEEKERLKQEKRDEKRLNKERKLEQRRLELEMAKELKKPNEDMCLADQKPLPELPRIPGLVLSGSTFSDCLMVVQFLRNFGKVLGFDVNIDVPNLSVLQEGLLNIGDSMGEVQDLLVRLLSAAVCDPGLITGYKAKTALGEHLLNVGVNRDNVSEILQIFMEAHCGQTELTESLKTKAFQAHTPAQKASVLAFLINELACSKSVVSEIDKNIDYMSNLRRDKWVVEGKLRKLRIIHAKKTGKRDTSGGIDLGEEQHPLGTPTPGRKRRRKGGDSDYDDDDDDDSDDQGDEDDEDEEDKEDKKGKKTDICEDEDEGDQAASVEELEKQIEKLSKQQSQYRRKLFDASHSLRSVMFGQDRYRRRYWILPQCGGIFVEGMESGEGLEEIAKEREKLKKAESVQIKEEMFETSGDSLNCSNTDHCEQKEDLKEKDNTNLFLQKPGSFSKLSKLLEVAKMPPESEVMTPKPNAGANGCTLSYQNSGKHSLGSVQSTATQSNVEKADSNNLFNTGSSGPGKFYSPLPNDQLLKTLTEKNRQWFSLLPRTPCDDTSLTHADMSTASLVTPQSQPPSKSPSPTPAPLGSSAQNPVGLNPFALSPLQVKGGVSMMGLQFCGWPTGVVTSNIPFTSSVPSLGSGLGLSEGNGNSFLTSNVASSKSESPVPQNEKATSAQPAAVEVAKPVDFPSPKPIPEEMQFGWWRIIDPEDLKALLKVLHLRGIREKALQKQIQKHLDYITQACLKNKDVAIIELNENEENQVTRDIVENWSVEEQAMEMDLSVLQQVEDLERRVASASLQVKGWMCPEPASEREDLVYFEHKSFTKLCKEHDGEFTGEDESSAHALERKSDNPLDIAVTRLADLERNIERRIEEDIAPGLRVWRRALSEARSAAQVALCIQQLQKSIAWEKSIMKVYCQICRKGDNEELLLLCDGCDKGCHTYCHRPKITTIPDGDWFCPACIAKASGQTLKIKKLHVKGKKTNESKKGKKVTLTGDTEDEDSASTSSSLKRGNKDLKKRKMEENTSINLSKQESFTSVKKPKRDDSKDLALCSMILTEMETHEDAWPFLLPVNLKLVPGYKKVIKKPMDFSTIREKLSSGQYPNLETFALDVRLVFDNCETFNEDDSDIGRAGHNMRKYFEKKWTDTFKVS
How it was run: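 Compounds, titrated to a top concentration of 110 uM, were incubated 30 min at room temperature with preformed BAZ2B/acetyl-K14 H3 peptide complex (50 nM each). Proximity signal was measured by AlphaScreen after 20 min with beads.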
Further: nearly all actives have a fitted effect of over 60% in size.
Potency means the concentration at half of the fitted maximal effect; tags describe the fitted curve by direction and shape.

| Structure (SMILES) | Potency |
| --- | --- |
| CCCCNc1c(-c2ccc(OC)c(SC3CCCCC3)c2)nc2cnccn12 | inconclusive: 89.1 µM [inhibitor, single point] |
| CC(=O)Nc1ccc2[nH]c(C)c(CC=C(Cl)Cl)c(=O)c2c1 | inconclusive: 89.1 µM [inhibitor, single point] |
| CC(C)(C)CC(=O)Nc1nnc(C(F)(F)F)s1 | inactive |
| Cc1[nH]n(-c2ccccc2)c(=O)c1C(c1cccc([N+](=O)[O-])c1)c1c(C)[nH]n(-c2ccccc2)c1=O | active: 28.2 µM |
| COc1cc(CNCc2ccccn2)ccc1OCC(N)=O | active: 14.1 µM |
| COc1ccccc1N1CCN(C(c2ccccc2)c2nnnn2CCc2ccccc2)CC1 (stereo unspecified) | inconclusive: 89.1 µM [inhibitor, single point] |
| COc1ccc(N2CCN(C3CCCN(S(=O)(=O)c4ccccc4)C3)CC2)cc1 (stereo unspecified) | active: 70.8 µM |
| O=C(CSc1ccc(-c2ccco2)nn1)NCc1ccc2c(c1)OCO2 | inconclusive: 70.8 µM [inhibitor, single point] |
| Cn1cc(Cl)c(-c2n[nH]c(=S)n2-c2ccccc2)n1 | inactive |
| Cc1ccc(NC(=S)NCCc2ccc(Cl)cc2)c(C)c1 | active: 79.4 µM |
| CCN1C(=O)c2cccc3c(NS(=O)(=O)c4ccc(NC(C)=O)cc4)ccc1c23 | inconclusive: 89.1 µM [inhibitor, single point] |
| O=C(NCc1ccco1)C1Cc2ccccc2CN1C(=O)c1ccco1 (stereo unspecified) | active: 79.4 µM |
| CC(OC(=O)c1ccc([N+](=O)[O-])o1)C(=O)Nc1nc(-c2ccc(F)c(F)c2)cs1 (stereo unspecified) | inconclusive: 79.4 µM [inhibitor, partial curve] |
| CCN(CCCNC(=O)C1CCC(=O)N1Cc1ccccc1Cl)c1cccc(C)c1 (stereo unspecified) | inconclusive: 89.1 µM [inhibitor, single point] |
| Cc1ncc(CO)c(/C=N/NC(=S)Nc2ccc(F)cc2)c1O | active: 3.16 µM |
| CN(/C(=N\S(=O)(=O)c1ccccc1)C(F)(F)F)c1ccccc1 | inconclusive: 89.1 µM [inhibitor, single point] |
| CCN(CC)c1ccc2c(c1)OC(N)=C(C#N)C2c1cccnc1 (stereo unspecified) | inconclusive: 25.1 µM [inhibitor, single point] |
| O=C(CCNc1ccccc1)c1cccc([N+](=O)[O-])c1 | inconclusive: 79.4 µM [inhibitor, single point] |
| O=C(NNC(=O)C1C2CCCCC21)c1coc(=O)c(Br)c1 (stereo unspecified) | inconclusive: 79.4 µM [inhibitor, single point] |
| Cc1ccc2cc3c(NC(=O)C4CCCO4)nn(CC(C)C)c3nc2c1 (stereo unspecified) | inconclusive: 39.8 µM [inhibitor, single point] |
| COc1cc(/C=C2/C(=O)NN(c3ccc(F)cc3)C2=O)cc(Cl)c1O | active: 31.6 µM |
| C/C(=N\NC(=O)c1cc(-c2ccco2)nc2ccccc12)c1cccnc1 | inactive |
| COc1cc(C2c3[nH]c4ccccc4c3CCN2Cc2cn(C)nc2C)ccc1F (stereo unspecified) | inconclusive: 50.1 µM [inhibitor, partial curve] |

| Structure (SMILES) | Potency |
| --- | --- |
| Cc1ccc(NC(=O)Cc2n[nH]c(=S)n2C)cc1 | inactive |
| O=C(O)c1ccc2c3n(nc2c1)-c1ccc(Cl)cc1CO3 | inconclusive: 79.4 µM [inhibitor, partial curve] |
| O=C(Nc1ccc(Cl)cc1)[C@@H]1[C@@H]2C(=O)N(c3ccc4ccccc4c3)C(=O)[C@@H]2[C@H]2C=CC=NN21 | inconclusive: 79.4 µM [inhibitor, single point] |
| CCNc1ccc(S(=O)(=O)N(C)C)cc1NCC(=O)Nc1ccccc1F | inactive |
| CC(C(=O)Nc1ncc([N+](=O)[O-])s1)N1C(=O)c2ccccc2S1(=O)=O (stereo unspecified) | inactive |
| Cc1ccc(Cn2c(C)c(CNCc3ccccc3F)c(C(=O)O)c2C)cc1 | inactive |
| COc1ccc(CCNc2nc(-c3sc(N)nc3C)cs2)cc1OC | active: 50.1 µM |
| COc1cccc(C2C(C#N)=C(N)OC3=C2C(=O)CC(c2ccco2)C3)c1OCc1ccc(F)cc1 (stereo unspecified) | inconclusive: 44.7 µM [inhibitor, partial curve] |
| Cc1ccc(/C=N\NC(=O)c2cc([N+](=O)[O-])cc([N+](=O)[O-])c2)o1 | inconclusive: 89.1 µM [inhibitor, single point] |
| CCCN(CCC)c1ccc(C(O)c2nnc(-c3ccccc3)o2)cc1 (stereo unspecified) | active: 31.6 µM |
| Cc1ccccc1NC(=O)c1cc(N)ccc1N1CCCCC1 | inconclusive: 44.7 µM [inhibitor, partial curve] |
| COc1ccc(NC(=S)NC(C)Cc2cccs2)cc1 (stereo unspecified) | inconclusive: 17.8 µM [inhibitor, partial curve] |
| Cc1ccccc1NC(=S)N(C)Cc1cn(C)c2ccccc12 | inconclusive: 44.7 µM [inhibitor, partial curve] |
| CCc1ccc(Nc2n[n+](-c3ccccc3)c(-c3cccc(C)c3)s2)cc1 | active: 35.5 µM |
| Cc1ccc(C)c(N2CCN(S(=O)(=O)c3ccc4c(c3)CC(C)N4C(=O)C3CC3)CC2)c1 (stereo unspecified) | inconclusive: 70.8 µM [inhibitor, single point] |
| C/C(=N\NS(=O)(=O)c1ccc(Br)cc1)c1ccc(-n2ccnc2)cc1 | inactive |
| O=C(C1COc2cc(S(=O)(=O)Nc3ccc(Cl)cc3)ccc2O1)N1CCCC1 (stereo unspecified) | inconclusive: 89.1 µM [inhibitor, single point] |
| COc1ccc(NC(=O)c2ccc(C(=O)Nc3ccc(OC)cc3OC)cc2)c(OC)c1 | inactive |
| C=C1C(C(=O)Nc2ccc(OC)cc2)C1C(=O)Nc1ccc(OC)cc1 (stereo unspecified) | inconclusive: 3.55 µM [inhibitor, single point] |
| CCC(=O)Nc1ccc(C(=O)COC(=O)c2nc3nccc(C)n3n2)cc1 | active: 10 µM |
| Cc1nn(C)c(C)c1CCC(=O)N1CCCC(Nc2ccc(C(C)C)cc2)C1 (stereo unspecified) | inconclusive: 89.1 µM [inhibitor, single point] |
| Cc1ccc(CC(=O)NNC(=O)c2cccs2)cc1C | inactive |
| O=C(O)CCCNC(=O)c1cccc(C(=O)NCCCC(=O)O)n1 | inconclusive: 89.1 µM [inhibitor, single point] |
